According to the RNAGym collection of RNA variant scans (doi:10.1101/gad.245936.114):
Variants at the background level are over-represented here.

B1: tRNA (parent)
chain: CUCUCGGUAGCCAAGUUGGUUUAAGGCGCAAGACUUUAAUUUAUCACUACGAAAUCUUGAGAUCGGGCGUUCGACUCGCCCCCGGGAGAUUUUUUCCUCGAGCAA

Variants of: B1
Assay: nonsense suppression (GFP-seq) (ratio to wild type); higher = more function; SUP4oc tRNA, yeast GFP reporter sort-seq
In short: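 Each variant's nonsense suppression (GFPSEQ) is a cell-share-weighted bin median GFP/RFP relative to the unmutated parent tRNA. Yeast with genome-integrated tRNA variants from a ~3% random-mutation library, a galactose-driven GFP ochre reporter and RFP were grown in raffinose/galactose medium with 80 mg/L adenine, then sorted into GFP/RFP bins for Illumina sequencing. Variants needed ≥100 reads and ≥30 cells.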

Nonsense suppression, ≤ 0.026:
CUCUCGGUAGCCAAGUUAGUUUAAGGCGCAAGACUUUAAUUUAUCACUACGAAAUCUUGAGAUCGUGCGUUCGACUCGCCCCCGGGAGAUUUUUUCCUCGAGCAA
CUCUCGGUAGCCAAGUUAGUUUAAGGCGCAAGACUUUAAUUUAUCACUACGAAAUCUUGAGAUCGGACGUUCGACUCGCCCCCGGGAGAUUUUUUCCUCGAGCAA
CUCUCGGUAGCCAAGUUAGUUUAAGGCGCAAGACUUUAAUUUAUCACUACGAAAUCUUGAGAUCGGUCGCUCGACUCGCCCCCGGGAGAUUUUUUCCUCGAGCAA
CUCUCGGUAGCCAAGUUAGUUUAAGGCGCAAGACUUUAAUUUAUCACUACGAAAUCUUGAGAUCGGGCGUUCAACUCGCCCCCGGGAGAUUUUUUCCUCGAGCAA
CUCUCGGUAGCCAAGUUAGUUUAAGGCGCAAGACUUUAAUUUAUCACUACGAAAUCUUGAGAUCGGGCGUUCUACUCGCCCCCGGGAGAUUUUUUCCUCGAGCAA
CUCUCGGUAGCCAAGUUAGUUUAAGGCGCAAGACUUUAAUUUAUCACUACGAAAUCUUGAGAUCGGGCGUUCUACUCGACCCCGGGAGAUUUUUUCCUCGAGCAA
CUCUCGGUAGCCAAGUUAGUUUAAGGCGCAAGACUUUAAUUUAUCACUACGAAAUCUUGAGAUCGGGCGUUCGACUCGCCCCCAGGAGAUUUUUUCCUCGAGCAA
CUCUCGGUAGCCAAGUUAGUUUAAGGCGCAAGACUUUAAUUUAUCACUACGAAAUCUUGAGAUCGGGCGUUCGACUCGCCCCCGGCAGAUUUUUUCCUCGAGCAA
CUCUCGGUAGCCAAGUUAGUUUAAGGCGCAAGACUUUAAUUUAUCACUACGAAAUCUUGAGAUCGGGCGUUCGACUCGCCCCCGGUAGAUUUUUUCCUCGAGCAA
CUCUCGGUAGCCAAGUUAGUCUAAGGCGCAAGACUUUAAUUUAUCACUACGAAAUCUUGAGAUCGGGCGUUCGACUCGCCCCCGGGAGCUUUUUUCCUCGAGCAA
CUCUCGGUAGCCAAGUUAGUGUAAGGCGCAAGAUUUUAAUUUAUCACUACGAAAUCUUGAGAUCGGGCGUUCGACUCGCCCCCGGGAGAUUUUUUCCUCGAGCAA
CUCUCGGUAGCCAAGUUAGUUUAAGGCGCAAGACAUUAAUUUAUCACUACGAAAUCUUGAGAUCGGGCGUUCGACUCGCCCCCGGGAGAUUUUUUCCUCGAGCAA
CUCUCGGUAGCCAAGUUAGUUUAAGGCGCAAGACGUUAAUUUAUCACUACGAAAUCUUGAGAUCGGUCGUUCGACUCGCCCCCGGCAGAUUUUUUCCUCGAGCAA
CUCUCGGUAGCCAAGUUAGUUUAAGGCGCAAGACUUUAAUUUAUCACUACGAAAUCUUGAGACCGGGCGUACGACUCGCCCCCGGGAGAUUUUUUCCUCGAGCAA
CUCUCGGUAGCCAAGUUAGUUUAAGGCGCAAGACUUUAAUUUAUCACUACGAAAUCUUGAGAGCGGUCGUUCCACUCGCCCCCGGGAGAUUUUUUCCUCGAGCAA
CUCUCGGUAGCCAAGUUAGUUUAAGGCGCAAGACUUUAAUUUAUCACUACGAAAUCUUGAGAUCGGGCGAUCGACUCGCCCCCGGGAGAUUUUUUCCUCGAGCAA
CUCUCGGUAGCCAAGUUAGUUUAAGGCGCAAGACUUUAAUUUAUCACUACGAAAUCUUGAGAUCGGGCGUCCGACUCGCCCCCGGGAGAUUUUUUCCUCGAGCAA
CUCUCGGUAGCCAAGUUAGUUUAAGGCGCAAGACUUUAAUUUAUCACUACGAAAUCUUGAGAUCGGGCGUCCAACUCGCCCCCGGGAGAUUUUUUCCUCGAGCAA
CUCUCGGUAGCCAAGUUCGUUUCAGGCGCAAGACUUUAAUUUAUCACUACGAAAUCUUGAGAUCGGGCGUUCGACUCGCACCCGGGAGAUUUUUUCCUCGAGCAA
CUCUCGGUAGCCAAGUUCGUUUCAGGCGCAAGACUUUAAUUUAUCACUACGAAAACUUGAGAUCGGGCGUUCAACUCGCCCCCGGGAGAUUUUUUCCUCGAGCAA
CUCUCGGUAGCCAAGUUCGUUUGAGGCGCAUGACUUUAAUUUAUCACUACGAAAUCUUGAGAUCGGGCGUUCGACUCGCCCCCGGAAGAUUUUUUCCUCGAGCAA
CUCUCGGUAGCCAAGUUCGUUUGAGGCGCAAGACUUUAAUUUAUCACUACGAAAUCUUGUGAUCGGGCGUUCAAAUCGCCCCCGGGAGAUUUUUUCCUCGAGCAA
CUCUCGGUAGCCAAGUUCGUUUUAGGCGCAAGGCUUUAAUUUAUCACUACGAAAUCUGGCGAUCGGGCGUUCGACGCGCUCCCGGGAGAUUUUUUCCUCGAGCAA
CUCUCGGUAGCCAAGUUCGUUUUAGGCGCAAGACUUUAAUUUAUCACUACGAAAUCGUGAGAUCGGGCGUUCGACUCGCCCCCGGGACAUUUUUUCCUCGAGCAA
CUCUCGGUAGCCAAGUUCGUUUACGGCGCAAGACUUUAAUUUAUCACUACGAAAUAUUGAGAUCGGGCGUUCGACUCGCCCCCGGGAGAUUUUUUCCUCGAGCAA
CUCUCGGUAGCCAAGUUCGUUUAGGGCGCAAGACUUUAAUUUAUCACUACGAAAUCUUGAGAUCGGGCGUUCUACUCGCCCCCGGGAGAUUUUUUCCUCGAGCAA
CUCUCGGUAGCCAAGUUCGUUUAAGGCGCCAGACUUUAAUUUAUCACUACGAAAUCUUGAGAUCGGGCGUUCGACUCGCCCCCGGCAGAUUUUUUCCUCGAGCAA
